Hit rate of the full screen: of about 310,000 compounds, about 18,000 (5.8%) were called active. Inconclusive results, whose numbers are uncertain, are shown with a selection of clear calls. Calls come from the whole dose curve; as a rule, active = well fitted inhibition curve with a large enough effect; inconclusive = small, poorly fitted or top-dose-only effect, or another doubt; inactive = no such curve, though single readings can be large or run the other way. No potency is given beside an inconclusive call; the fits are too rough.
Test: Primary qHTS for delayed death inhibitors of the malarial parasite plastid, 48 hour incubation
Details: P. falciparum luciferase growth in erythrocytes; series mostly up to 28.7 µM
In short: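 Compounds are pin-transferred into medium, infected erythrocytes (2% hematocrit, 0.1% parasitemia final) are added, and plates sit one parasite generation at 37 C in 5% CO2. Detection reagent is then added and luminescence measured.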
Potency is the fitted concentration of half-maximal effect; tags give direction and shape of the fitted curve.

SMILES | Potency
CCCOc1ccc(C2NC(=O)NC2=O)cc1 (centres undefined) | inactive
COc1ccc(N(CC(=O)Nc2cc(Cl)ccc2OC)S(=O)(=O)c2c(C)[nH]c(=O)[nH]c2=O)cc1 | inactive
CCNC(=O)/C(C#N)=C/c1c(N2CCCCCC2)nc2ccccn2c1=O | inconclusive [inhibitor, single point]
CC1=NN(c2ccccc2)C(=O)/C1=C\C=C1\N(C)c2ccccc2C1(C)C | inconclusive [inhibitor, partial curve]
COc1ccc(/C=C/C(=O)N(C)C2CCCCC2)cc1Br | inactive
COC(=O)/C=C1\SC(N)=NC1=O | inconclusive [inhibitor, partial curve, poor fit]
Cc1ccc(C(C(=O)NC2CCCCC2)N(Cc2ccco2)C(=O)Cn2cnc3ccccc32)cc1 (centres undefined) | active: 11.7 µM
O=C(Nc1nc(-c2ccco2)c(-c2ccco2)s1)c1cnccn1 | inconclusive [inhibitor, single point]
CC(OC(=O)c1ccc(Cl)nc1)C(=O)N1CCc2ccccc21 (centres undefined) | inconclusive [inhibitor, single point]
Cc1ccc(C(=O)c2cc([N+](=O)[O-])ccc2N2CCOCC2)c(C)c1 | inconclusive [inhibitor, single point]
O=C(O)c1c2c(nc3ccc(S(=O)(=O)N4CCC(C(=O)NC5CCCCCC5)CC4)cc13)CCCC2 | inconclusive [inhibitor, single point]
Cc1ccc(C=Nc2ccc(N(C)C)cc2)o1 | inconclusive [inhibitor, full curve, poor fit]
O=C(N/C(=C\c1cccc([N+](=O)[O-])c1)C(=O)N1CCCCC1)c1cccs1 | inconclusive [inhibitor, partial curve, poor fit]
CCN(CC)c1ncnc2c1cnn2Cc1ccc(Cl)cc1 | inconclusive [inhibitor, partial curve, poor fit]
CCCCCCOc1cccc(N)c1 | inconclusive [inhibitor, partial curve, poor fit]
Cc1ccc(S(=O)(=O)N(CC(=O)NCC2CCCO2)Cc2ccc(F)cc2)cc1 (centres undefined) | inconclusive [inhibitor, single point]
COc1ccccc1C(=O)NCCNC(=O)c1ccc(C)nc1 | inactive
CN(C)S(=O)(=O)c1ccc(N2CCCC2)c(C(=O)Nc2ccccc2F)c1 | inconclusive [inhibitor, single point]
CN1C(=O)N(CC(=O)Nc2ccc(C(F)(F)F)cc2)C(=O)C12CCCCC2 | inconclusive [inhibitor, single point]
CN(C)C(=O)CSc1nnc(CCCCCNC(=O)OC(C)(C)C)o1 | inactive
CC(C)CN1C(=O)C(=O)N(CC(=O)Nc2cc(Cl)ccc2Oc2ccccc2)C1=O | inconclusive [inhibitor, single point]
CCOc1ccc(C(=O)Nc2ccc(N3CCN(C)CC3)cc2)cc1[N+](=O)[O-] | inconclusive [inhibitor, partial curve]

SMILES | Potency
CC(=O)OC1C[C@H](O[C@@H]2C(O)C[C@H](O[C@@H]3C(O)C[C@@H](OC4CC[C@]5(C)C(CCC6C5CC(O)[C@@]5(C)C(C7=CC(=O)OC7)CC[C@@]65O)C4)OC3C)OC2C)O[C@H](C)[C@H]1O[C@H]1OC(CO)C(O)C(O)C1O (some centres undefined) | active: 8.49 µM
Cc1ccc(C)c(Cn2nnc3c(=O)[nH]c(C4CCCN(C(=O)C5CCCCC5)C4)nc32)c1 (centres undefined) | active: 6.57 µM
CN(C(=O)Oc1cccc2cccnc12)c1ccccc1 | inactive
O=C(CCCOc1ccc(Cl)cc1)N1CCCCC1 | inactive
CCOC(=O)N1CCN(C(=O)Cn2nc(C)c3sc4ccccc4c3c2=O)CC1 | inconclusive [inhibitor, full curve, poor fit]
S=C(Nc1ccccc1)N1CCN(C(=S)c2ccccc2)CC1 | inactive
Cc1cc(-c2ccc(C)c(S(=O)(=O)NCC3CCN(Cc4cccc(F)c4)CC3)c2)on1 | active: 9.28 µM
O=C(O)c1cc(-c2ccc(O)cc2)on1 | inactive
Fc1ccc(N/N=C(/c2ccccc2)c2ccccn2)cc1 | inconclusive [inhibitor, single point]
CSC1=NC(NCCCO)c2c(sc3c2CC(C)(C)OC3)N1 (centres undefined) | inconclusive [inhibitor, partial curve, poor fit]
COc1ccc(CCNC(=O)c2ccc(-c3ccc([N+](=O)[O-])cc3Cl)o2)cc1 | inactive
COc1ccccc1C1=CC(=O)C[C@H](c2ccc(Cl)cc2)C1 | active: 7.38 µM
CC1=CC(C)(C)N(C(=O)CN2C(=O)c3ccccc3C2=O)c2ccc(C)cc21 | inconclusive [inhibitor, single point]
O=C(NC(=S)N1CCCCC1CO)C12CC3CC(CC(C3)C1)C2 (centres undefined) | inconclusive [inhibitor, partial curve, poor fit]
N#Cc1nc(Cc2cccc3ccccc23)oc1NCc1ccc2c(c1)OCO2 | inconclusive [inhibitor, single point]
Cc1ccc(CNC(=O)COC(=O)c2cncc(Br)c2)cc1 | inconclusive [inhibitor, partial curve]
CN1CCN(C(=O)c2cccc(-c3cc(O)c4ncccc4c3)c2)CC1 | active: 10.4 µM
CC(C)N(CCCNC(=O)C1CCN(S(=O)(=O)N2CCOCC2)CC1)Cc1ccccc1 | inactive
O=C(/C=C/Nc1ccccc1F)c1ccc(Br)cc1 | inactive
CCCSc1nnc2n(C)c(=O)c3c4c(sc3n12)CCC4 | inconclusive [inhibitor, partial curve]
COc1cc(/C=C/C(=O)OCC(=O)NC2CCS(=O)(=O)C2)ccc1OC(F)F (centres undefined) | inconclusive [inhibitor, single point]
COc1ccccc1C/C(N)=N/OC(=O)c1ccc(C)c([N+](=O)[O-])c1 | inconclusive [inhibitor, partial curve]

From PubChem BioAssay AID504832 (National Center for Advancing Translational Sciences (NCATS), 2011)
